According to a collection of fitness landscapes (doi:10.1126/science.1257360):
The list shows a part of the results.

B1: PhoQ; a variant is named by its letters at X, in order, P23837 (parent)
chain: MKKLLRLFFPLSLRVRFLLATAAVVLVLSLAYGMVALIGYSVSFDKTTFRLLRGESNLFYTLAKWENNKLHVELPENIDKQSPTMTLIYDENGQLLWAQRDVPWLMKMIQPDWLKSNGFHEIEADVNDTSLLLSGDHSIQQQLQEVREDDDDAEMTHSVAVNVYPATSRMPKLTIVVVDTIPVELKSSYMVWSWFIYVLSANLLLVIPLLWVAAWWSLRPIEALAKEVRELEEHNRELLNPATTRELTSLVRNLNRLLKSERERYDKYRTTLTDLTHSLKTPLXXLQXXLRSLRSEKMSVSDAEPVMLEQISRISQQIGYYLHRASMRGGTLLSRELHPVAPLLDNLTSALNKVYQRKGVNISLDISPEISFVGEQNDFVEVMGNVLDNACKYCLEFVEISARQTDEHLYIVVEDDGPGIPLSKREVIFDRGQRVDTLRPGQGVGLAVAREITEQYEGKIVAGESMLGGARMEVIFGRQHSAPKDE

Variants of: B1
Assay: enrichment ratio after two sorts for PhoP signalling (ratio (wild type AVST 3.29)); higher = more functional
Settings: with PhoP (E. coli)

Row | Variant | enrichment ratio
1 | DTGT | ≤ 0.25
2 | ANTG | 1.58
3 | HSEY | ≤ 0.25
4 | TPCE | ≤ 0.25
5 | YCNG | ≤ 0.25
6 | FLCC | ≤ 0.25
7 | FTLT | 2.51
8 | RGQC | ≤ 0.25
9 | FAGH | 0.439
10 | VPSC | ≤ 0.25
11 | ETFT | ≤ 0.25
12 | AHTS | ≤ 0.25
13 | FFDE | ≤ 0.25
14 | PHSH | ≤ 0.25
15 | FWRV | ≤ 0.25
16 | AADK | ≤ 0.25
17 | AKSF | 2.49
18 | DFHE | ≤ 0.25
19 | WLSK | ≤ 0.25
20 | IFWV | ≤ 0.25
21 | EHMH | ≤ 0.25
22 | DDEG | ≤ 0.25
23 | MTIN | ≤ 0.25
24 | HFHS | ≤ 0.25
25 | REYW | ≤ 0.25

Row | Variant | enrichment ratio
26 | EQLA | ≤ 0.25
27 | IWQW | ≤ 0.25
28 | KEGG | ≤ 0.25
29 | RMRD | ≤ 0.25
30 | IFHN | ≤ 0.25
31 | NNCG | ≤ 0.25
32 | VSKS | ≤ 0.25
33 | CCSY | ≤ 0.25
34 | DCVY | ≤ 0.25
35 | HAPL | ≤ 0.25
36 | MTAF | 8.26
37 | PANY | ≤ 0.25
38 | EMFL | ≤ 0.25
39 | YKNR | ≤ 0.25
40 | PYEA | ≤ 0.25
41 | WNKW | ≤ 0.25
42 | NENM | ≤ 0.25
43 | IFRH | ≤ 0.25
44 | KYIN | ≤ 0.25
45 | VKFH | ≤ 0.25
46 | MVMN | ≤ 0.25
47 | ESWA | ≤ 0.25
48 | AKFG | ≤ 0.25
49 | PRDI | ≤ 0.25
50 | ITGL | ≤ 0.25

Row | Variant | enrichment ratio
51 | GRSG | ≤ 0.25
52 | FHWD | ≤ 0.25
53 | EHQS | ≤ 0.25
54 | GCTY | 5.53
55 | VCMH | ≤ 0.25
56 | NKEY | ≤ 0.25
57 | NQGP | ≤ 0.25
58 | GVIA | ≤ 0.25
59 | DMAN | ≤ 0.25
60 | MFPP | ≤ 0.25
61 | VAKQ | ≤ 0.25
62 | RAQM | ≤ 0.25
63 | LDNE | ≤ 0.25
64 | THDC | ≤ 0.25
65 | QITY | ≤ 0.25
66 | YTFS | ≤ 0.25
67 | FYRQ | ≤ 0.25
68 | VVYW | ≤ 0.25
69 | FSKD | ≤ 0.25
70 | MEVF | ≤ 0.25
71 | PMKT | ≤ 0.25
72 | SWCF | ≤ 0.25
73 | GKVI | ≤ 0.25
74 | GWTT | ≤ 0.25
75 | VRII | ≤ 0.25

Row | Variant | enrichment ratio
76 | DCCF | ≤ 0.25
77 | NDKH | ≤ 0.25
78 | FFMK | ≤ 0.25
79 | KDQI | ≤ 0.25
80 | GMII | ≤ 0.25
81 | RHMF | ≤ 0.25
82 | KCNA | ≤ 0.25
83 | LYSS | ≤ 0.25
84 | STEC | ≤ 0.25
85 | QPDP | ≤ 0.25
86 | KPGW | ≤ 0.25
87 | MKVE | ≤ 0.25
88 | FEAM | 3.27
89 | QYLT | ≤ 0.25
90 | GDNN | ≤ 0.25
91 | QHWR | ≤ 0.25
92 | GMGW | ≤ 0.25
93 | PVDH | ≤ 0.25
94 | WPRY | ≤ 0.25
95 | HDSQ | ≤ 0.25
96 | GCTV | ≤ 0.25
97 | HRCV | ≤ 0.25
98 | DVYM | ≤ 0.25
99 | MDKP | ≤ 0.25
100 | PQII | ≤ 0.25

Row | Variant | enrichment ratio
101 | AQMT | 23.8
102 | NCWI | ≤ 0.25
103 | MYGS | ≤ 0.25
104 | QSDA | 7.1
105 | KANY | ≤ 0.25
106 | GPHN | ≤ 0.25
107 | WFDQ | ≤ 0.25
108 | THKI | ≤ 0.25
109 | LDDH | ≤ 0.25
110 | VMIP | ≤ 0.25
111 | YRKG | ≤ 0.25
112 | LTED | ≤ 0.25
113 | QNLI | ≤ 0.25
114 | DMEG | ≤ 0.25
115 | LSSK | ≤ 0.25
116 | RKNY | ≤ 0.25
117 | RDFT | ≤ 0.25
118 | IIPY | ≤ 0.25
119 | INHE | ≤ 0.25
120 | MSRL | ≤ 0.25
121 | IWHS | ≤ 0.25
122 | YSQI | 0.258
123 | HEMH | ≤ 0.25
124 | VRAD | ≤ 0.25
125 | QDNW | ≤ 0.25

Row | Variant | enrichment ratio
126 | AVTG | 11.3
127 | GPLL | ≤ 0.25
128 | AMPM | ≤ 0.25
129 | SHQA | ≤ 0.25
130 | PCGE | ≤ 0.25
131 | DCLE | ≤ 0.25
132 | VSIV | ≤ 0.25
133 | WQWK | ≤ 0.25
134 | WPFY | ≤ 0.25
135 | FIAQ | ≤ 0.25
136 | SKSV | 5.98
137 | PRVC | ≤ 0.25
138 | VKCV | ≤ 0.25
139 | KEQH | ≤ 0.25
140 | WSHL | ≤ 0.25
141 | GDFW | ≤ 0.25
142 | YWGR | ≤ 0.25
143 | NNQL | 5.12
144 | DSKA | ≤ 0.25
145 | MIDS | ≤ 0.25
146 | VDLN | ≤ 0.25
147 | EPMV | ≤ 0.25
148 | WHYQ | ≤ 0.25
149 | WGLQ | ≤ 0.25
150 | YIHN | ≤ 0.25

Row | Variant | enrichment ratio
151 | DLYH | ≤ 0.25
152 | VTTA | ≤ 0.25
153 | NYTQ | ≤ 0.25
154 | SVCT | 5.1
155 | HGVY | ≤ 0.25
156 | VMKS | ≤ 0.25
157 | FTDG | ≤ 0.25
158 | VQPG | ≤ 0.25
159 | SAYY | ≤ 0.25
160 | DMWH | ≤ 0.25
161 | FYCC | ≤ 0.25
162 | LIVI | ≤ 0.25
163 | YPES | ≤ 0.25
164 | HYKQ | ≤ 0.25
165 | YLFY | ≤ 0.25
166 | KNEC | ≤ 0.25
167 | PDVG | ≤ 0.25
168 | EFRQ | ≤ 0.25
169 | VVNS | ≤ 0.25
170 | SPFT | ≤ 0.25
171 | WQLG | ≤ 0.25
172 | FGLG | 5.82
173 | IRIQ | ≤ 0.25
174 | RNQL | ≤ 0.25
175 | TRMD | ≤ 0.25

Row | Variant | enrichment ratio
176 | YGYQ | ≤ 0.25
177 | FENV | ≤ 0.25
178 | PNMM | ≤ 0.25
179 | GNNR | ≤ 0.25
180 | TEHR | ≤ 0.25
181 | PTNW | ≤ 0.25
182 | GWFH | ≤ 0.25
183 | AWAT | ≤ 0.25
184 | NFQH | ≤ 0.25
185 | TDIC | 14.4
186 | TLMA | ≤ 0.25
187 | QLLA | ≤ 0.25
188 | SDQM | ≤ 0.25
189 | NLMV | ≤ 0.25
190 | EIRL | ≤ 0.25
191 | YEKH | ≤ 0.25
192 | AIWW | ≤ 0.25
193 | YDNK | ≤ 0.25
194 | EGTQ | ≤ 0.25
195 | VWWY | ≤ 0.25
